54 compounds from PMC4336329 (PLoS ONE, 2015) can be followed below.

About 14,000 (4.5%) of roughly 310,000 compounds showed an effect of 50% or more. Effects have a minus sign here. Some of the results follow.
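Further: peak tail current of the secondary pulse compared with the same well before compound.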

The target in this experiment is human ether-à-go-go-related gene (hERG) potassium channel (human, UniProt Q12809). The experiment in a line: primary screen, population patch clamp on CHO cells stably expressing hERG.
Chain of human ether-à-go-go-related gene (hERG) potassium channel (Q12809 whole entry, looked up): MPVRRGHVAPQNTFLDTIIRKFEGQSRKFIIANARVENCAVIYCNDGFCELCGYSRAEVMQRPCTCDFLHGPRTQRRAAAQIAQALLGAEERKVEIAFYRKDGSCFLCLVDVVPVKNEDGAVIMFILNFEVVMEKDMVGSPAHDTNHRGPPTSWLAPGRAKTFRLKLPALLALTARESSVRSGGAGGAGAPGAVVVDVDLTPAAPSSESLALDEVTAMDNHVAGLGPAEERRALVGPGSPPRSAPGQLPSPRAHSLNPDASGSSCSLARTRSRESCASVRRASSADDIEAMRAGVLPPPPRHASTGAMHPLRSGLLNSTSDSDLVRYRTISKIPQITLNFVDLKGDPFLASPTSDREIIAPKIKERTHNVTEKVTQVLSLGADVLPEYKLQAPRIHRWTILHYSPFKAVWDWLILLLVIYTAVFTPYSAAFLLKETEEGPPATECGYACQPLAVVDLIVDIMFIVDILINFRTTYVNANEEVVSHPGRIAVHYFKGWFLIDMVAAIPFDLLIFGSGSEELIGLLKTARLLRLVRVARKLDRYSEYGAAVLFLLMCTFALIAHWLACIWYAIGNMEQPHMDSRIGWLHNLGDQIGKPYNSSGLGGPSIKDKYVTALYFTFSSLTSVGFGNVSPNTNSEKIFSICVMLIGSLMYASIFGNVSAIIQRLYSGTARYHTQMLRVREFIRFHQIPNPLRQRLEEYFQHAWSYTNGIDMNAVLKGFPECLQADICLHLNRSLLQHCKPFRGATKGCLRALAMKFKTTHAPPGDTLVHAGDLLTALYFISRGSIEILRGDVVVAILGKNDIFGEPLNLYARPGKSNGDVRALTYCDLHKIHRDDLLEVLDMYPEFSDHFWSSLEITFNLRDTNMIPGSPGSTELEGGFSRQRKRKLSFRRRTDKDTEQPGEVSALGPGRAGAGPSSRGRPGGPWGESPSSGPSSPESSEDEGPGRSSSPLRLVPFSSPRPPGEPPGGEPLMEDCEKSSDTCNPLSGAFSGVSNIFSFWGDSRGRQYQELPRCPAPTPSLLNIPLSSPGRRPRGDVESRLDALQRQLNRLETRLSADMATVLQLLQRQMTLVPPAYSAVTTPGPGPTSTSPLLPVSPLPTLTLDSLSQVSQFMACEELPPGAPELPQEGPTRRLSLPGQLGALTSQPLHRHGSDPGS
In the case of `COC(=O)C(Cc1cnc(Cl)s1)(C(=O)OC)c1ccccc1[N+](=O)[O-]`, the “hERG current change (%, negative = inhibition) at 10uM” value was 5.44%. Take `Clc1ccc(C2[C@H]3CN(Cc4cccnc4)[C@H](c4ccccc4)C34CC2(c2cccnc2)C4)cn1` (stereo partly drawn): the “hERG current change (%, negative = inhibition) at 10uM” value is recorded as -15.6%. The value for `O=C(Nc1ccc(Cl)cc1)N1CCN(c2ccccc2)CC1` was -5.5%. For `Cc1c(C(c2ccc(N(C)C)cc2)c2c(C)n(C)n(-c3ccccc3)c2=O)c(=O)n(-c2ccccc2)n1C`, the “hERG current change (%, negative = inhibition) at 10uM” value came to 14.4%. Turning to `COc1ccc(N2CCN(C(=O)COC(=O)COc3cc(C)cc(C)c3)CC2)cc1`, the “hERG current change (%, negative = inhibition) at 10uM” value is -45.5%. On to `Cc1sc2nc(CSc3ccccc3)nc(N3CCC(C(N)=O)CC3)c2c1C`, for which the “hERG current change (%, negative = inhibition) at 10uM” value is -8.46%.

Turning to `Cc1cccc(NC(=O)CNC(=O)N2CC(=O)Nc3ccccc32)c1C`, the “hERG current change (%, negative = inhibition) at 10uM” value is 32.9%. On to `CCNC(=O)CC1C(=O)N(c2ccccc2)C(=O)N1CCOC` (stereo not drawn), for which the “hERG current change (%, negative = inhibition) at 10uM” value is on record as 21.4%. Turning to `O=S(=O)(c1ccc2nc(N3CCN(c4ccc(F)cc4)CC3)ccc2c1)N1CCCCC1`, the “hERG current change (%, negative = inhibition) at 10uM” value came to 0.314%. For the compound `O=C(O)C1CCN(c2ccc([N+](=O)[O-])cc2[N+](=O)[O-])CC1`, the “hERG current change (%, negative = inhibition) at 10uM” value was 7.59%. Take `O=C(NC(=S)Nc1nc2ccccc2s1)c1ccco1`: the “hERG current change (%, negative = inhibition) at 10uM” value is recorded as 24.1%. Regarding `O=C1c2cccc3cccc(c23)C(=O)N1CCCCCc1n[nH]c(=S)o1`, the “hERG current change (%, negative = inhibition) at 10uM” value was -5.47%.

With `Cc1cnc(NC(=O)c2cccc(S(=O)(=O)N3CCOCC3)c2)s1`, the “hERG current change (%, negative = inhibition) at 10uM” value turned out to be 8.52%. For the compound `O=C(NC1CCCCC1)C(c1ccncc1)N(C(=O)Cc1cccs1)c1ccccc1` (stereo not drawn), the “hERG current change (%, negative = inhibition) at 10uM” value was 13.3%. Regarding `CC(C)CC(=O)Nc1cc([N+](=O)[O-])ccc1Cl`, the “hERG current change (%, negative = inhibition) at 10uM” value was -2.59%.

As for `Cc1ccc(S(=O)(=O)/N=C(\c2ccccc2)N(C)S(=O)(=O)c2ccccc2)cc1`, the “hERG current change (%, negative = inhibition) at 10uM” value is -12.4%.

With `COc1cc(C=O)c(Br)cc1OCc1ccc(C)cc1`, the “hERG current change (%, negative = inhibition) at 10uM” value was 6.13%.

With `Cc1cc(Cl)c(S(=O)(=O)Nc2ccccn2)cc1OCC(N)=O`, the “hERG current change (%, negative = inhibition) at 10uM” value is on record as -71.8%. On to `CC(Oc1ccc(Br)cc1Br)C(=O)Nc1cccnc1` (stereo not drawn), for which the “hERG current change (%, negative = inhibition) at 10uM” value is given as 32.4%.

Take `Cc1cccc(-c2noc(CNC(=O)c3ccc4c(c3)OCO4)n2)c1`: the “hERG current change (%, negative = inhibition) at 10uM” value is listed as -10.4%. `O=C(C1CCN(Cc2cn[nH]c2-c2ccc(F)cc2F)CC1)N1CCOCC1`: the “hERG current change (%, negative = inhibition) at 10uM” value came to 8.72%. `CCCSCCCNC(=O)c1ccc(NC(=O)C2=CSCCO2)cc1`: the “hERG current change (%, negative = inhibition) at 10uM” value is -14.7%. Regarding `S=C(NC1CC1)N1CCCc2ccccc21`, the “hERG current change (%, negative = inhibition) at 10uM” value turned out to be 9.39%. The value for `CC(C)OCCCNC(=O)C1CC(=O)N(CCc2ccc(F)cc2)C1` (stereo not drawn) was 3.32%; that for `O=C(CSc1nnc(CNC(=O)c2ccc(F)cc2)o1)NCCc1ccccc1` was 1.83%; that for `Cc1cccc(NC(=S)NC2CC3CCCC(C2)N3Cc2ccco2)c1` (stereo not drawn) was -21.7%. Turning to `Fc1cc(F)c2nc(N3CCCC3)sc2c1`, the “hERG current change (%, negative = inhibition) at 10uM” value was 9.04%. As to `COCCCN(C(=O)CSCC(=O)Nc1cccc(C)c1)c1c(N)n(Cc2ccccc2)c(=O)[nH]c1=O`, the “hERG current change (%, negative = inhibition) at 10uM” value worked out at 11.3%. Next, `O=C(NCc1ccccc1)c1cccc(COc2ccc3c(c2)CCC3)c1`: -28.5%. With `CC(C)C[C@H](NC(=O)C1CC(=O)N(c2ccc3c(c2)OCO3)C1)C(=O)NCc1ccco1` (stereo partly drawn), the “hERG current change (%, negative = inhibition) at 10uM” value is -5.38%. For the compound `O=C(NCc1ccccn1)c1ccc(COc2ccc(Cl)cc2)o1`, the “hERG current change (%, negative = inhibition) at 10uM” value is on record as -15.4%.

As for `COc1cc(/C=C(/C#N)c2nc3ccccc3[nH]2)ccc1OC(=O)c1ccco1`, the “hERG current change (%, negative = inhibition) at 10uM” value is given as -6.24%. Take `O=C(COc1ccc(-c2nnco2)cc1)NCc1ccccc1Cl`: the “hERG current change (%, negative = inhibition) at 10uM” value is -6.27%. Regarding `COCCN(C(=O)CSCC(=O)Nc1cccc(C)c1)c1c(N)n(Cc2ccccc2)c(=O)[nH]c1=O`, the “hERG current change (%, negative = inhibition) at 10uM” value is on record as 2.27%.

For the compound `Cc1cc(Cl)ccc1OC(C)C(=O)N1CCCN(C(=O)C(C)Oc2ccc(Cl)cc2C)CC1` (stereo not drawn), the “hERG current change (%, negative = inhibition) at 10uM” value is on record as -8.3%. As for `CC(=O)OCc1cc2cc(C)ccc2[nH]c1=O`, the “hERG current change (%, negative = inhibition) at 10uM” value came out at 18%. Turning to `Cc1cccc(C)c1OCC(=O)NNC(=S)NC(=O)C1CC1`, the “hERG current change (%, negative = inhibition) at 10uM” value came out at 8.5%.

Turning to `C=CCN1C(=O)c2ccc(C(=O)NCCc3ccc(OC)c(OC)c3)cc2C1=O`, the “hERG current change (%, negative = inhibition) at 10uM” value was found to be 12.5%. Turning to `CCC(=O)c1c[nH]c(C(=O)NCc2ccccc2OC)c1`, the “hERG current change (%, negative = inhibition) at 10uM” value was -6.15%. For `CCOC(=O)C1CCN(CCCSc2ccc(C)cc2)CC1.Cl`, the “hERG current change (%, negative = inhibition) at 10uM” value is listed as -71%. Next, `O=C(OCc1cc(=O)n2c(n1)sc1ccccc12)c1ccc(O)cc1O`: 2.86%; `O=C(CNC(=O)[C@@H]1Cc2ccccc2CN1)Nc1ccc2c(c1)OCCO2`: 12.2%; `O=c1cc(CSc2nnc(-c3cccs3)n2Cc2ccccc2)nc2sc3ccccc3n12`: -53.5%. On to `Cc1ccc(SCc2[nH]nc3c2C(c2ccco2)C(C#N)=C(N)O3)cc1` (stereo not drawn), for which the “hERG current change (%, negative = inhibition) at 10uM” value is -0.815%. `Clc1ccc(Cn2ccnc2)cn1`: the “hERG current change (%, negative = inhibition) at 10uM” value is listed as 3.44%.

For `Cc1ccc2nc(C3CCN(S(=O)(=O)c4ccc5ccccc5c4)CC3)[nH]c2c1`, the “hERG current change (%, negative = inhibition) at 10uM” value is recorded as -3.46%. Regarding `CSc1ccccc1NC(=O)Cn1c([N+](=O)[O-])cnc1C`, the “hERG current change (%, negative = inhibition) at 10uM” value worked out at 3.53%.

On to `CCN(CC)Cc1c(C(=O)N/N=C/c2cccnc2)nnn1-c1nonc1N`, for which the “hERG current change (%, negative = inhibition) at 10uM” value is listed as -10.9%. For `CC(C)Sc1nc2c(cnn2-c2ccccc2)c(=O)[nH]1`, the “hERG current change (%, negative = inhibition) at 10uM” value is listed as 5.88%. For the compound `CC1=CC=CC2=NC(=O)CC(C)(C(=O)N(CC(=O)NC(C)C)C3CCCC3)N12` (stereo not drawn), the “hERG current change (%, negative = inhibition) at 10uM” value worked out at 26.3%. With `CC(=O)Nc1ccc(S(=O)(=O)Nc2ccc(Cl)cn2)cc1`, the “hERG current change (%, negative = inhibition) at 10uM” value is 15.4%. Next, `CCc1ccc(C2c3[nH]c4ccccc4c3CCN2C(=O)CN2CCN(CC)CC2)cc1` (stereo not drawn): 12.7%; `O=C(O)c1cc(NCc2ccccc2C(F)(F)F)ccc1N1CCOCC1`: -26.5%. `CCOC(=O)C1=C(C)N=c2s/c(=C/c3cccc(OCC(=O)O)c3)c(=O)n2C1c1ccc(F)cc1` (stereo not drawn): the “hERG current change (%, negative = inhibition) at 10uM” value amounted to 7.33%.
